{"source": "the RNAGym collection of RNA variant scans (doi:10.1093/nar/gkz1192)", "parents": {"B1": {"name": "CPEB3 Ribozyme (parent)", "chain": "UAACAGGGGGCCACAGCAGAAGCGUUCACGUCGCAGCCCCUGUCAGAUUCUGGUGAAUCUGCGAAUUCUGCUGUAUAUCUC"}}, "note": "Read counts are not given, so values of variants with three or more changes are uncertain."}
{"variants_of": "B1", "assay": "self-cleavage, relative activity (ratio to wild type); higher = more cleavage; in vitro, sequencing", "procedure,_shortened": "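Relative activity was defined as the cleaved/total read fraction for a variant divided by the same fraction for the unmutated ribozyme. CPEB3 self-cleaving ribozyme libraries were made by rounds of error-prone PCR, barcoded, and transcribed in vitro with T7 RNA polymerase for 5 hours at 37°C, and cleavage ran through transcription plus a 15 min DNase I step before EDTA. Illumina sequencing of template-switched reverse transcripts gave the reads, and DNA sequencing mapped the barcodes. Averages come from three batches, using variants with at least 5 reads.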"}
{"variant": "UAACUGGGGGCCACAGCAGAAGCGUUCUCGUCGCAGCCCCUGUCAGAUUCCGGUGAAUCUGCGAAUUCAGCUGUAUAUCUC", "self-cleavage": 0.85}
{"variant": "UAACUGGGGGCCACAGCAGAAGCGUUCACGUCGCGGCCCCUGUCGGAUUCUGGUGUAUCUGCGAAUUCUGCUGUAUGUCCC", "self-cleavage": 1.12}
{"variant": "UAACUGGGGGCCACAGCAGAAGCGUUCACGUCGCGGCCCCUGUCGGAUUCAGGUGAAUCUGCGAAUUCUGCUGUAUAUCUC", "self-cleavage": 1.37}
{"variant": "UAACUGGGGGCCACAGCAGAAGCGUUCACGUCGCUGCCCCUGUCAGAUUCUGGUGAAUCUGCGGAUUCUGCUGUAUAUCUC", "self-cleavage": 0.62}
{"variant": "UAACUGGGGGCCACAGCAGAAGCGUUCACGUCGCUGCCCCUGUCAGAUUCUGGUGAAUCUGCGAGUUCUGCUGUAUAUCUC", "self-cleavage": 0.25}
{"variant": "UAACUGGGGGCCACAGCAGAAGCGUUCACGUCGCUGCCCCUGUCAGAUUCUGGCGAAUCUGCGAAUUCUGCUGUAUAUCCC", "self-cleavage": 0.67}
{"variant": "UAACUGGGGGCCACAGCAGAAGCGUUCACGUCGCAGCCCCUGUCCGACUCUGGUGAAUCUGCGAAUUCUGCUGUAUAUCUC", "self-cleavage": 0.08}
{"variant": "UAACUGGGGGCCACAGCAGAAGCGUUCACGUCGCAGCCCCUGUCGGAUUCUGGUGGAUCUGUGAAUUCUGCUGUAAAUCUC", "self-cleavage": 0.43}
{"variant": "UAACUGGGGGCCACAGCAGAAGCGUUCACGUCGCAGCCCCUGUCGGACUCUGGUGAAUCUGCGAGUUCUGCUGUAUAUCAC", "self-cleavage": 0.47}
{"variant": "UAACUGGGGGCCACAGCAGAAGCGUUCACGUCGCAGCCCCUGUCUGAUUCUGGUGAAUCUGCGGAUUCUGCUGUAUAUCUC", "self-cleavage": 0.47}
{"variant": "UAACUGGGGGCCACAGCAGAAGCGUUCACGUCGCAGCCCCUGUCUGAUACAGGUGAAUCUGCGAAUUAUGCUGUAAAUCUC", "self-cleavage": 0.06}
{"variant": "UAACUGGGGGCCACAGCAGAAGCGUUCACGUCGCAGCCCCUGUCAGGCUCUUGUGAAUCUGCGAAUUCUGCUGUAUAUCUC", "self-cleavage": 0.29}
{"variant": "UAACUGGGGGCCACAGCAGAAGCGUUCACGUCGCAGCCCCUGUCAGAUUCUGGUGGAUCUGCGAAUUCUGCUGUAUACCUC", "self-cleavage": 0.52}
{"variant": "UAACUGGGGGCCACAGCAGAAGCGUUCACGUCGCAGCCCCUGUCAGAUUCUGGUGUGUCUGCGAAUUCUGCUGUAUAUCUC", "self-cleavage": 0.49}
{"variant": "UAACUGGGGGCCACAGCAGAAGCGUUCACGUCGCAGCCCCUGUCAGAUUCUGGUGUAUCCGCGAAUUCUGCUGUAUAUCUC", "self-cleavage": 0.26}
{"variant": "UAACUGGGGGCCACAGCAGAAGCGUUCACGUCGCAGCCCCUGUCAGAUUCUGGUGAGUCUGCGAAUUCCUCUGUAUACCUC", "self-cleavage": 0.26}
{"variant": "UAACUGGGGGCCACAGCAGAAGCGUUCACGUCGCAGCCCCUGUCAGAUUCUGGUGAAUCUGCGGAUUCCGCUGUAUAUCUC", "self-cleavage": 0.59}
{"variant": "UAACUGGGGGCCACAGCAGAAGCGUUCACGUCGCAGCCCCUGUCAGAUUCUGGUGAAUCUGCGGAUUCUGCUGUAUACCUC", "self-cleavage": 0.87}
{"variant": "UAACUGGGGGACACGGCAGAAGCGUUCACGUCGCAGCCCCUGUCAGAUUCUGGUGAAUCUGCGAGAUCUGCUGUAUAUCUC", "self-cleavage": 0.11}
{"variant": "UAACUGGGGGACACAGCUGGAGCGUUCACGUCGCGGCCCCUGUCAGAUUCUGGUGGAUCUGCGAAUUCUGCUGUAUAUCCC", "self-cleavage": 0.14}
{"variant": "UAACUGGGGGACACAGCAGAAGUGUUCACGUCGCAGCCCCUGUCAGAUUCCGGUGAAUCUGCGUAUUCUGCUGUAUACCCC", "self-cleavage": 0.06}
{"variant": "UAACUGGGGGGCACAGCAGAAGCGUUCCCGUCGCAGCCCCUGUCAGAUUCUGGUGAAUCUGCGAAUUCUGCUGUAUACCUC", "self-cleavage": 0.35}
{"variant": "UAACUGGGGGGCACAGCAGAAGCGUUCUCGUCGCAGCCCCUGUCAGAUUCUGGUGAAUCUGCGAAUUCUGCUGUAUAUCUC", "self-cleavage": 0.46}
{"variant": "UAACUGGGGGGCACAGCAGAAGCGUUCACGUCGCAGCCCCUGUCAGAUUCGGGUGAACCUGCGAGUUCUGCUGUAUAUCUC", "self-cleavage": 0.08}
{"variant": "UAACUGGGGGUCACUGCAGAAGCGCUCACGUCGCAGCCCCUGUCAGAUACUGGUGAAUCUGCGAAUUCUGCUGUAUAUCUC", "self-cleavage": 0.1}
{"variant": "UAACUGGGGGUCACUGCAGAAGCGUCCACGUCGCAGCCCCUGUCAGAUUCUGGUGAAUCUGCGAAUACUGCUGUAUAUCUC", "self-cleavage": 0.2}
{"variant": "UAACUGGGGGCAACAGCAGAAGCGUUCACGUCGCAACCCCUGUCAGAUUCUGGUGAAUCUGCGAAUUCUGCAGUAUAUCUC", "self-cleavage": 0.73}
{"variant": "UAACUGGGGGCUACAGUAGAAGCGUUCACGUCGCUGCCCCUGUCAGAUUCUAGUGAACCUGCGAAUUCUGCUGUAUAUCUC", "self-cleavage": 0.41}
{"variant": "UAACUGGGGGCUACAGCAGAAGCGUCCACGUCGCAGCCCCUGUCAGAUUCUGGUGAAUCUGCGAAUUCUGCUGUAAAUCUC", "self-cleavage": 0.93}
{"variant": "UAACUGGGGGCCAAAGCAAAAGCGUUCACGUCGCAGCCCCUGCCAGAUUCUGGUGAAUCAGCGAAUUCUGCUGUAUAUCUC", "self-cleavage": 0.07}
{"variant": "UAACUGGGGGCCACAGUAGAAGCGUUCACGUCGCAGCCCCUGCCAGAUUCUGGUGAAUCUGCGAAUUCUGCUGUAUAUCUC", "self-cleavage": 0.47}
{"variant": "UAACUGGGGGCCACAGCAGAAGCGUUAACGCCGCGGCCCCUGUCAGAUUCUGGUGAAUCUGCGAUUUCCGCUGUACAUCUC", "self-cleavage": 0.08}
{"variant": "UAACUGGGGGCCACAGCAGAAGCGUUGACGUCGCAGCCCCUGUCAGAUUCUGGUGAAUCUGCGAAUUCUGCUGUAUACCUC", "self-cleavage": 0.25}
{"variant": "UAACUGGGGGCCACAGCAGAAGCGUUUACGUCGCAGCCCUUGUCAGAUUCUGGUGAAUCUGCGAAUUCUGCUGCAUAUCUC", "self-cleavage": 0.19}
